# “And” between values parts separate entries of the source, which are not always exact repeats. Identical values can stand only once.
# How the values were obtained:
# [1] = test system: Influenza strain H3N2 (Kansas A)
# [2] = test system: Influenza strain H3N2 (SingaporeA); details: 3 patients
# [3] = test system: Influenza strain H1N1 (BrisbaneA)
# [4] = test system: seasonal influenza; design: species or system influenza A and B; details: in vivo
# [5] = test system: Influenza strain H1N1 (MichiganA); details: 3 patients
smiles,measurement,setting,value
"Nc1nc(Cl)nc2c1ncn2[C@H]1C[C@H](O)[C@@H](CO)O1 [cladribine tablets, Cladribine]",2-fold change,"[1]; H3N2 (Kansas A), 8 patients",38%
same,4-fold change,"[1]; H3N2 (Kansas A), 8 patients",13%
same,Post-vacc seroprotection,"[1]; H3N2 (Kansas A), 8 patients",100%
same,Pre-vacc seroprotection,"[1]; H3N2 (Kansas A), 8 patients",100%
same,H3N2 (Kansas A) antibody titer (HAI),[1]; in vivo,40 and 80
same,2-fold change,[2],67%
same,4-fold change,[2],0%
same,Post-vacc seroprotection,[2],100%
same,Pre-vacc seroprotection,[2],33%
same,2-fold change,"[3]; H1N1 (BrisbaneA), 9 patients",22%
same,4-fold change,"[3]; H1N1 (BrisbaneA), 9 patients",11%
same,Post-vacc seroprotection,"[3]; H1N1 (BrisbaneA), 9 patients",100%
same,Pre-vacc seroprotection,"[3]; H1N1 (BrisbaneA), 9 patients",100%
same,H1N1 (BrisbaneA) antibody titer (HAI),[3]; in vivo,80
same,"post-vaccination antibody titers against seasonal influenza (HAI), seroprotection limit",[4],≥ 40
same,rise in titers against one Influenza strain,[4],≥ 4 fold
same,2-fold change,[5],33%
same,4-fold change,[5],0%
same,Post-vacc seroprotection,[5],100%
same,Pre-vacc seroprotection,[5],100%

# — US12533408B2, “Treatment regimen for the treatment of autoimmune disorders” (Merck Patent GmbH, priority 2020, dated 2026)
